The record followed here is the supplement of paper PMC10126150.

The subject of this data set is ATP. Kind of data set: switch fluorescence ratio, 500 uM ATP over buffer (Cy3 cluster intensity, sum of 5 cycles each) (fold (ratio)); higher = stronger signal-on switching upon ATP binding; sequences stand for … in TCGTCGGCAGCGTCAGATGTGTATAAGAGACAGTTTTTTTTTTTTTTTTTTTTTTTTT…TC. The following applies: aptamer strand: ATP DNA aptamer (quencher-CACCTGGGGGAGTATTGCGGAGGAAGG + anchor), 100 nM annealed; ATP concentration: 500 uM; one replicate. In a few lines: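 Cy3-labelled switching-strand clusters on a modified Illumina MiSeq flow-cell were annealed to 100 nM quencher-labelled ATP aptamer and imaged first in selection buffer, then after 15 min with 500 uM ATP at 22 °C. NaOH stripping and re-annealing separated each of five buffer/ATP cycles, and clusters outside 100-1000 RFU were excluded. The fluorescence ratio sums target-cycle Cy3 intensity over buffer-cycle Cy3 intensity per cluster and averages it per switch-domain sequence.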

Sequences with one replicate were seen in a single cluster, so their values are uncertain.
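Note: ATP exposure 15 min at 22 °C before imaging.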

Turning to AAATCTACCC, the switch fluorescence ratio was found to be 1.15.
Regarding TGTCATAGGT, the switch fluorescence ratio worked out at 0.993.
Then TTTAGTGCGT, with 0.995.
Under AGGGCGGGC stands 0.991.
Then ATAGATTTGT, with 1.
In the case of CATCAACAGG, the switch fluorescence ratio worked out at 1.15.
Then GCCACCGAGT, with 1.01; and GCCATGTTAC, with 1.1; and CCATAGCCGG, with 1.09.
For CGCCCACCTG, the switch fluorescence ratio came to 1.07.
Then CATGTGCGGC, with 1.
Then AGAGTTTTAC, with 1.06; and CGCCGTCGGA, with 1.01; and GTTGATAAAC, with 0.986.
Turning to ACAAGGATTG, the switch fluorescence ratio came out at 0.988.
Then CTTGCCGGCC, with 1.05; and AATAGAAAT, with 1.04.
Then ACAGAGACGG, with 1.07; and TACAATTCCC, with 0.997.
As to TCTGAGTGTT, the switch fluorescence ratio was 0.981.
Then ATACTGAAAC, with 1.03; and TTAGGGATTT, with 1.
Then AAAGTTCGGA, with 0.983.
Under GTCTCTGGG stands 1; under AGATGGGGGC, 1.02; under CATTTCTTCA, 1.03.
In the case of TTCGTTGGGC, the switch fluorescence ratio came out at 0.95.
Under GTAATACTGT stands 1.17; under GGAGAGTAAT, 0.995.
Under CCTAGTGTGT stands 1.07; under GCGGAGGATA, 1.03.
Then GCAAATATGA, with 1.01; and ATATAGCTGT, with 1.02; and ATCGGACACT, with 1.04.
On to ACTTTATGCG, for which the switch fluorescence ratio is 1.04.
With ACCGGAACGG, the switch fluorescence ratio was determined as 1.05.
Then TTAGGCTTG, with 1.01.
Under CAACGTTGCT stands 0.996.
Under GATAGCCCTT stands 1.04; under TCATCCGGTT, 1.61; under ATCGTCCACG, 1.02.
As to TTATGGCCGG, the switch fluorescence ratio came to 0.974.
Under ATTTCTTGGC stands 0.989; under AGGGCGCGGT, 1.03; under GGTCAATTGC, 1.12.
Under TGGTGGTGTT stands 0.96; under GCGGTCACTA, 1.03.
As to AAAGTAAGTG, the switch fluorescence ratio was determined as 0.961.
Then GTTTTCGTCT, with 1.06; and TCCGACCAG, with 1.28; and ACGGCATAAA, with 0.992.
Under GGCGTGGTG stands 1.45; under GAAGTGTTTT, 0.949.
Then GGGTTAACT, with 1; and TAATGCCAGC, with 0.981; and TATAGCTGCG, with 1.01.
As for TCATTACGTA, the switch fluorescence ratio worked out at 1.37.
Under GTGTAGCGAT stands 1.66; under GTCGGTCTCG, 0.949.
Take GTCTAACCGG: the switch fluorescence ratio came to 1.03.
Under GCCGTAAGCT stands 1.06; under CCCGGTCCTT, 1.02.
Under CAAGTTTTA stands 0.976; under GAGTGCGATT, 1.01; under TTACCCGGGA, 1.07.
Under AGTATGTA stands 0.971.
TGATTGGCGA: the switch fluorescence ratio worked out at 1.2.
Under ATATGCGCTA stands 1.06; under GGCCATCTGA, 0.998.
In the case of TCGTTAATAT, the switch fluorescence ratio came out at 1.12.
Then TCTGTATATT, with 1.
For GCAGCTAGGG, the switch fluorescence ratio worked out at 1.07.
Then CCTGCTCCAC, with 1.91; and CTCGCCGTCG, with 0.957; and TATGTTTCGA, with 0.991.
Under CCCCATCTTC stands 1.03; under TACAAACTTT, 1.06.
CGGTTTTCGG: the switch fluorescence ratio came to 1.01.
Consider GAGGTCTCCT, for which the switch fluorescence ratio came to 0.991.
Then GCGCAGCCTA, with 1; and AGTCTCACAA, with 1; and GACATAG, with 1.08.
Regarding GCGATAATCA, the switch fluorescence ratio was 1.16.
Regarding TAAATAAGTG, the switch fluorescence ratio worked out at 1.02.
Under TCTCAATTAT stands 1.03; under GCGAGTATGG, 1.02; under AAGGCCACTG, 0.985.
Under GGGCCGTTCA stands 1.05; under TTGACGCTTG, 1.03.
Under GGGGTGAATT stands 0.963.
For the sequence CAAACTTTAC, the switch fluorescence ratio was determined as 1.26.
In the case of GAATAAGTGG, the switch fluorescence ratio stood at 0.981.
Turning to TGAGATGTGG, the switch fluorescence ratio came out at 0.975.
Consider AATGACGCG, for which the switch fluorescence ratio came out at 0.977.
Under CTACAGGTTG stands 1.12; under CTTCCCTTGT, 1.03.
With CGCCGTTAGG, the switch fluorescence ratio is 0.981.
Under GAATTATAGA stands 1.01; under AACGTACCCT, 1.68; under TTGTTTTCAG, 1.04.
Under ATTCAGAAGT stands 1.01.
For the sequence ACTGTCAGC, the switch fluorescence ratio amounted to 1.05.
Then ATGTCCCCTT, with 0.965; and ACTCATATAG, with 1.06.
Under CCGAACATCT stands 1.17.
Then GATTAATCAT, with 1.01; and CGTGCGGAAG, with 1.03; and GGTTAGATTA, with 0.982.
As to GGGAATCCGT, the switch fluorescence ratio stood at 0.945.
Turning to ATAGGGTCTA, the switch fluorescence ratio amounted to 1.02.
In the case of GATGTTGGCG, the switch fluorescence ratio was 1.07.
Then GAGCGCTGGG, with 0.984.
Consider TAAGAGGGAC, for which the switch fluorescence ratio amounted to 0.964.
Then TGTAGGGAGT, with 0.992; and GGGTGCCTGA, with 0.946; and AGTCTGGCGT, with 0.982.
Take GCAACTTTT: the switch fluorescence ratio worked out at 1.01.
Under ATCTTGGCCA stands 0.964; under ATTTATATAG, 0.987; under AGCAGGGTTC, 1.02.
